# Reference: PubChem BioAssay AID1671188 (National Center for Advancing Translational Sciences (NCATS), 2021)
# Out of some 100,000 compounds screened, about 250 (0.25%) were called active. The shares of active, inactive and inconclusive entries below differ from those in the screen. Calls come from the whole dose curve; as a rule, active = well fitted inhibition curve with a large enough effect; inconclusive = small, poorly fitted or top-dose-only effect; inactive = flat fitted curve, though single readings scatter. No potency is given beside an inconclusive call; the fits are too rough.
# Molecular target: Alanine aminotransferase 2 (Homo sapiens) (UniProt Q8TD30)
# Experiment: Primary qHTS assay for inhibitors of Glutamate pyruvate transaminase 2 (GPT2); note: nearly all actives have a fitted effect of over 60% in size
# Settings: Recombinant GPT2, coupled pyruvate oxidase/HRP Amplex Red fluorescence; activity change, negative = inhibition: at 57.7 µM (top of the series) unless noted; series mostly up to 57.7 µM
# Method in brief: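 GPT2 10ng/uL, a-KG 250uM, L-Ala 2mM, HEPES pH7.5 + 0.0001% Tween; 30 min RT. Then Amplex mix (PO/HRP/ThPP), 30 min RT dark, fluorescence. AOA 50uM used as positive control.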
# % is set by controls: 0 for no effect and ±100 for the full control effect; potency is the fitted concentration of half-maximal effect; tags give direction and shape of the fitted curve.
# Chain of UniProt Q8TD30 (Q8TD30 whole entry, looked up): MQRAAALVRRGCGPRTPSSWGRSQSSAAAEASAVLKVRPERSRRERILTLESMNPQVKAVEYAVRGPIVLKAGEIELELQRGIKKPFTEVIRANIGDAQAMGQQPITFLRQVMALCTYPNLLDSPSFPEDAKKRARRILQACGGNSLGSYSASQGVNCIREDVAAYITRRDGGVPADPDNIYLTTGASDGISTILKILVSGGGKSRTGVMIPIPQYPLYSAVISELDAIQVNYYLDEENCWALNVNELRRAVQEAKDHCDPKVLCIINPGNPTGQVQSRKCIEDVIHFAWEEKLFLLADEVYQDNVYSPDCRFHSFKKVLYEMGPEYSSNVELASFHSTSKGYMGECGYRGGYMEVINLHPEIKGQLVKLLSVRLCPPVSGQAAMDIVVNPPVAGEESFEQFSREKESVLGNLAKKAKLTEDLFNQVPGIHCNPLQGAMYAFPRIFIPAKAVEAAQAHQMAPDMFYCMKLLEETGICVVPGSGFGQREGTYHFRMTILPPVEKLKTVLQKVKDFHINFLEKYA
SMILES,Potency,"activity change, negative = inhibition",outcome
O=C(Cc1ccccc1Br)N1CCCN(c2cc(-c3ccc(F)cc3)[nH]n2)CC1,"inconclusive [inhibitor, single point]",–,–
C=CCOC(=O)C1=C(C)N=C2SC=C(CC(=O)NCc3ccc(F)cc3)N2C1c1ccccc1C (configuration not stated),"inconclusive [inhibitor, single point]",–,–
COc1cccc([S+](=O)([O-])N2CCC(N3CCOC3=O)CC2)c1,"inconclusive [inhibitor, single point]",–,–
CCOc1ccc(CC(=O)NC2CCN(c3cc(-c4cccs4)[nH]n3)C2)cc1OCC (configuration not stated),"inconclusive [inhibitor, partial curve]",–,–
CC(C)C[C@@H](NC(=O)C1=C[C@@H](NC(=O)NC2CCCCC2)[C@@H](O)[C@H](O)C1)C(N)=O,"inconclusive [inhibitor, single point]",–,–
O=C(CNC(=O)c1cccc(-c2ccc(C(F)(F)F)cc2)c1)NCc1cccc(Cl)c1,–,inactive: -2.73%,–
C#CCOc1ccc(C(=O)N[C@@H]2CN(Cc3ccc(C(=O)O)cc3)CCC[C@H]2O)cc1,"inconclusive [inhibitor, single point]",–,–
O=C1CCN(C(=O)Cc2c[nH]c3ccccc23)CCCC(C(=O)NCc2ccccc2)CCN1 (configuration not stated),"inconclusive [inhibitor, single point]",–,–
O=C(NCc1noc(Cc2cccs2)n1)C1COc2ccccc2C1 (configuration not stated),"inconclusive [inhibitor, full curve]",–,–
COC(=O)N[C@@H](C)CNc1nccc(-c2cn(C(C)C)nc2-c2cc(Cl)cc(NS(C)(=O)=O)c2F)n1,–,inactive: 4.01%,–
COc1cccc2c1C(=O)c1c(O)c3c(c(O)c1C2=O)C[C@@](O)(C(=O)CO)C[C@@H]3O[C@H]1C[C@H](N)[C@H](O[C@@H]2CCCCO2)[C@H](C)O1,"inconclusive [inhibitor, single point]",–,–
FC(F)(F)c1ccc(CN2CCC3(CC2)CC(c2cccnc2)=NO3)cc1,"inconclusive [inhibitor, full curve, poor fit]",–,–
COCCOC(=O)N1CCC(COc2ccc3c(cnn3CCC(=O)O)c2)CC1,"inconclusive [inhibitor, full curve, poor fit]",–,–
COC(=O)c1c(NC(C)=O)c2cc(NC(C)CCO)cnc2n1CC1CCCO1 (configuration not stated),"inconclusive [inhibitor, partial curve]",–,–
CN1CCN(c2ccc(-c3cn(C)c(=O)n4cc(COc5ccnn5C)nc34)cn2)CC1,"inconclusive [inhibitor, single point]",–,–
Cc1noc2c(N(C)C)cc(-c3cccs3)nc12,"inconclusive [inhibitor, single point]",–,–
COCCNc1ncccc1-c1noc([C@@H]2CCCN2CC(C)(C)C)n1,–,inactive: -5.12% [at 88.5 µM],–
CCC(=O)N1Cc2ccccc2CC2(CCN(Cc3ccccc3)C2)C1 (configuration not stated),–,–,inactive
c1ccc(Nc2cc3c(cn2)CN(Cc2ccsc2)CCN3)cc1,"inconclusive [inhibitor, partial curve, poor fit]",–,–
COc1cccc(Nc2cnc3ccc(N4CCOCC4)nn23)c1,"inconclusive [inhibitor, single point]",–,–
O=C(c1ccccn1)N1CCC[C@H]1c1nc(-c2ccccc2)no1,"inconclusive [inhibitor, single point]",–,–

SMILES,Potency,"activity change, negative = inhibition",outcome
CCNC(=O)N1CC(c2noc(COc3ccc(OC)cc3)n2)C1,–,–,inactive
CN1CCCCCCN(S(=O)(=O)c2cccc(F)c2)[C@H]2CCC[C@H]2C1=O,–,–,inactive
CC(C)OC(=O)c1cc(C(=O)OC(C)C)cc([N+](=O)[O-])c1,"inconclusive [inhibitor, single point]",–,–
CC#CCn1cc2c3c(cccc31)[C@H](CC(C)C)N[C@H](C(=O)NC1CC1)C2,"inconclusive [inhibitor, partial curve, poor fit]",–,–
CC(C)c1nnc(C2CN(C(=O)Cc3ccsc3)CC23CCOCC3)o1 (configuration not stated),"inconclusive [inhibitor, single point]",–,–
COc1cc(C(=O)N2CCCC(c3nnc(Cn4ccnc4)n3C)C2)ccc1C (configuration not stated),"inconclusive [inhibitor, single point]",–,–
O=C(Cc1ccccc1Cl)N1CCC[C@H]1c1nc(-c2ccc(F)cc2)no1,"inconclusive [inhibitor, single point]",–,–
COc1cccc(C(=O)N(C)Cc2cccc(C(F)(F)F)c2)c1,–,inactive: -14.6% [at 88.5 µM],–
COCCNC(=O)Cc1c[nH]c2ncc(-c3ccc(OC)cc3)cc12,"inconclusive [inhibitor, full curve, poor fit]",–,–
OCc1cccc(-c2ccc3ncc(Nc4ccc(OCCN5CCCC5)cc4)n3n2)c1,–,–,inactive [at 88.5 µM]
COCC1CN(Cc2ccc(C(F)(F)F)cc2)CC12CCNCC2 (configuration not stated),–,–,inactive
Cc1nnc(-c2cc(-c3ccccc3Oc3ccccc3)ccn2)n1CCN1CCOCC1,"inconclusive [inhibitor, single point]",–,–
CC(C)(C)C(=O)N1CC[C@@H](CC(=O)O)[C@@H](CC2=NCCc3cc(F)ccc32)C1,"inconclusive [inhibitor, single point]",–,–
COc1ccccc1C(=O)N1CCC2(CC1)NC(=O)N(c1ccc(F)cc1)N2,"inconclusive [inhibitor, single point]",–,–
Cc1ccc(-n2nc(C)c([C@@H]3C=C[C@@H](NS(=O)(=O)c4cccs4)C3)c2C)cc1Cl,"inconclusive [inhibitor, single point]",–,–
O=C1NCC2(CCN(CCc3ccccc3)CC2)O1,"inconclusive [inhibitor, single point]",–,–
Clc1ccc2c(c1)CCc1cccnc1C2=C1CCNCC1,"inconclusive [inhibitor, single point]",–,–
CO[C@H]1CN(C2CCN(C(=O)CC3CCCCC3)CC2)[C@H]1c1cccnc1,"inconclusive [inhibitor, single point]",–,–
COCC(=O)Nc1nc2c(s1)C[C@]1(C)CC[C@@H]3[C@H](OC(=O)[C@H]3C)[C@H]1[C@@H]2C,–,inactive: -10.9% [at 88.5 µM],–
Cc1oc(-c2ccccc2)nc1CC(=O)N1Cc2ccccc2C(O)C1 (configuration not stated),"inconclusive [inhibitor, single point]",–,–
COc1ccc(C(=O)N2CCC[C@H]2c2nc(-c3ccc(C)cc3)no2)cn1,–,inactive: -7.86%,–

SMILES,Potency,"activity change, negative = inhibition",outcome
c1c[nH]c(CNC[C@H]2Cn3cc(-c4ccc5c(c4)OCCCO5)nc3CO2)n1,"inconclusive [inhibitor, partial curve, poor fit]",–,–
Cc1ccccc1-c1nc(-c2c(C)noc2C)cc2cc(CN(C)C)oc12,"inconclusive [inhibitor, single point]",–,–
COC(=O)c1ccc(CN2C(=O)[C@@H]3C[C@@H](O)CN3C3(CN(Cc4ccccc4Cl)C3)C2=O)cc1,–,inactive: 0.017%,–
O=C(Nc1cccc(F)c1)C1CN(C2CCCCC2)C(=O)N1 (configuration not stated),–,–,inactive [at 88.5 µM]
O=C1NC(=O)c2cc(Nc3ccccc3)c(Nc3ccccc3)cc21,"inconclusive [inhibitor, partial curve, poor fit]",–,–
CNc1cc(C2CC(Nc3nc(N)nc(C)c3Cl)C2)nc(COC)n1 (configuration not stated),"inconclusive [inhibitor, single point]",–,–
O=C(c1ccc(C2CCCNC2)cc1)N1CCC(Oc2cccc(F)c2)CC1 (configuration not stated),"inconclusive [inhibitor, full curve, poor fit]",–,–
Cc1[nH]cnc1CN1CCc2c(c3ccccc3n2C)C1=O,"inconclusive [inhibitor, single point]",–,–
COc1ccc(C2(C(=O)NCC(=O)N3CCCCCCNC(=O)CC3c3ccccc3)CC2)cc1 (configuration not stated),–,inactive: 2.28%,–
CN(C)CC(C)(C)NC(=O)c1csc2nc(-c3cccc(C(F)(F)F)c3)cn12,–,inactive: 1.24% [at 11.5 µM],–
Nc1nc2c(s1)C(c1cccc(F)c1F)CC(=O)N2 (configuration not stated),"inconclusive [inhibitor, full curve, poor fit]",–,–
CCN1CCCC2(CCN(C(=O)Cn3ccccc3=O)C2)C1=O (configuration not stated),"inconclusive [inhibitor, partial curve, poor fit]",–,–
CCN1CCCN(C(=O)CCC2CCCC2)CC12CCOCC2,"inconclusive [inhibitor, partial curve, poor fit]",–,–
N[C@H]1CO[C@H]2[C@@H]1OC[C@@H]2n1cc(-c2ccccn2)nn1,"inconclusive [inhibitor, partial curve, poor fit]",–,–
O=C(C1CCCN1Cc1ccc(-c2cncnc2)cc1)N1CCOCC1 (configuration not stated),"inconclusive [inhibitor, partial curve, poor fit]",–,–
COCc1cc(=O)n(CC(=O)Nc2cc(OC)cc(OC)c2)c(N2CCOCC2)n1,"inconclusive [inhibitor, full curve, poor fit]",–,–
CCC(CC)C(=O)N[C@H]1CCN2C(=O)c3cc(-c4cccs4)ccc3NC(=O)[C@@H]2C1,"inconclusive [inhibitor, single point]",–,–
COc1ccccc1-c1cn2c(n1)CO[C@@H](CNC(=O)c1ccc(F)cc1)C2,–,–,inactive [at 88.5 µM]
CC(C)c1ccccc1Cc1cc(C(=O)Nc2ccc(S(=O)(=O)c3ccccc3C(C)(C)C)cc2)c(O)c(O)c1O,active: 27.3 µM,–,–
CC(=O)Nc1ccc(NC(=O)CN2C(=O)NC(c3ccc(C)cc3)C3=C2COC3=O)cc1 (configuration not stated),"inconclusive [inhibitor, single point]",–,–
